In the supplement of paper PMC8047034 one finds log2 surviving fraction data, which are given here for 39 compounds.

Counter-ions that a name gives are not always drawn. The list shows a part of the results. Many values rest on one well or one pass, so single values are uncertain.

In this assay the test system is OVCAR4. The experiment in a line: log2 surviving fraction (library drug vs vehicle, or drug + carboplatin vs carboplatin alone; relative to plate median); ovarian cancer lines: OVCAR4 is platinum-sensitive and Ov4Carbo platinum-resistant; higher = more cell survival. The following applies: library drug concentration 10 µM; 7 days; carboplatin co-treatment 5 µM.
For the compound `CC(=O)/N=c1/sc(S(N)(=O)=O)nn1C` [Methazolamide], the log2 surviving fraction was 1.12.

For `C[C@@H]1CCN(C(=O)CC#N)C[C@@H]1N(C)c1ncnc2[nH]ccc12`, the log2 surviving fraction amounted to 1.15. Regarding `C[C@@H](O)[C@H]1C(=O)N2C(C(=O)[O-])=C(SC3Cn4cnc[n+]4C3)[C@H](C)[C@H]12` (some centres undefined) [Biapenem], the log2 surviving fraction stood at 0.228. Consider `Clc1ccc(C(Cn2ccnc2)OCc2c(Cl)cccc2Cl)c(Cl)c1` (centres undefined) [Isoconazole nitrate (Travogen)], for which the log2 surviving fraction is -1.51. In the case of `COc1cc(NS(=O)(=O)c2ccc(N)cc2)nc(OC)n1` [Sulphadimethoxine], the log2 surviving fraction is 0.00631. As to `O=C(O)c1cc(/N=N/c2ccc(O)c(C(=O)O)c2)ccc1O` [olsalazine sodium], the log2 surviving fraction is 0.0462. Take `C=CCOc1ccccc1OCC(O)CNC(C)C` (centres undefined) [Oxprenolol HCl]: the log2 surviving fraction was -0.527. The result for `COc1ccc(/C=C/C(=O)Nc2ccccc2C(=O)O)cc1OC` reads -0.707; that for `C[C@H](NC(=O)Cc1cc(F)cc(F)c1)C(=O)N[C@H](C(=O)OC(C)(C)C)c1ccccc1`, -1.04; that for `CN(C)[C@@H](CCOc1cccc2ccccc12)c1ccccc1` [Dapoxetine hydrochloride (Priligy)], -0.666. As for `CCN(CC)C(=S)SSC(=S)N(CC)CC` [Disulfiram (Antabuse)], the log2 surviving fraction is -7.56. With `Cc1nc2c([nH]1)-c1ccccc1N(C(=O)c1ccc(NC(=O)c3ccccc3-c3ccccc3)cc1)CC2` [Conivaptan HCl (Vaprisol)], the log2 surviving fraction is -0.747. On to `Cn1c(=O)c2c(ncn2CC(O)CO)n(C)c1=O` (centres undefined) [Dyphylline (Dilor)], for which the log2 surviving fraction amounted to 0.418.

Take `COC(=O)/C=C/C(=O)OC` [Dimethyl Fumarate]: the log2 surviving fraction worked out at 0.271. The result for `CC(=O)OCC(=O)[C@@]1(O)[C@H](C)C[C@H]2[C@@H]3CCC4=CC(=O)C=C[C@]4(C)[C@@]3(F)[C@@H](O)C[C@@]21C` [Dexamethasone acetate] reads 1.18.

As for `CC1C=CC=CCCC=CC=CC=CC=CC(OC2OC(C)C(O)C(N)C2O)CC2OC(O)(CC(O)C(O)CCC(O)CC(O)CC(O)CC(=O)OC(C)C(C)C1O)CC(O)C2C(=O)O` (centres undefined) [Nystatin (Mycostatin)], the log2 surviving fraction is -1.87. For `c1ccc(CN(CC2=NCCN2)c2ccccc2)cc1` [Antazoline HCl], the log2 surviving fraction was 0.382. Next, `Nc1cc(N2CCCCC2)nc(N)[n+]1[O-]` [Minoxidil]: 1.15; `CCCCNc1cc(C(=O)O)cc(S(N)(=O)=O)c1Oc1ccccc1` [Bumetanide]: 2.38.

As to `CN1CCc2cccc3c2[C@H]1Cc1ccc(O)c(O)c1-3` [R-(-)-Apomorphine HCl Hemihydrate], the log2 surviving fraction is -0.977. Next, `O=c1[nH]c(=O)n([C@H]2C[C@H](O)[C@@H](CO)O2)cc1I` [Idoxuridine]: -0.83; `C[C@]12CC[C@H](O)CC1=CC[C@@H]1[C@@H]2CC[C@]2(C)C(=O)CC[C@@H]12` [Dehydroepiandrosterone (DHEA)]: -0.00608. For the compound `O=C([O-])C(O)[C@H](O)[C@@H](O)[C@H](O)[C@H](O)CO.O=C([O-])C(O)[C@H](O)[C@@H](O)[C@H](O)[C@H](O)CO.[Ca+2]` (some centres undefined) [Calcium Gluceptate], the log2 surviving fraction is 0.289. As for `CC(=O)Nc1cc([As](=O)(O)O)ccc1O` [Acetarsone], the log2 surviving fraction is -0.425. For `CCn1cc(C(=O)O)c(=O)c2cc(F)c(N3CCNC(C)C3)c(F)c21` (centres undefined) [Lomefloxacin hydrochloride (Maxaquin)], the log2 surviving fraction turned out to be 0.459. For the compound `COc1ccccc1OCC(O)CN1CCN(CC(=O)Nc2c(C)cccc2C)CC1` (centres undefined) [Ranolazine dihydrochloride], the log2 surviving fraction was determined as 1.54. Turning to `CC1=NN(c2ccc(C)c(C)c2)C(=O)/C1=N\Nc1cccc(-c2cccc(C(=O)O)c2)c1O`, the log2 surviving fraction was -3.47. The result for `CC(CCc1ccc(O)cc1)NCC(O)c1ccc(O)cc1` (centres undefined) [Ractopamine HCl] reads -0.158; that for `N#Cc1c(N(CC(=O)O)CC(=O)O)sc(C(=O)O)c1CC(=O)O` [Strontium ranelate (Protelos)], -0.559. The result for `CO[C@H]1/C=C/O[C@@]2(C)Oc3c(C)c(O)c4c(O)c(c(/C=N/N5CCN(C6CCCC6)CC5)c(O)c4c3C2=O)NC(=O)/C(C)=C\C=C\[C@H](C)[C@H](O)[C@@H](C)[C@@H](O)[C@@H](C)[C@H](OC(C)=O)[C@@H]1C` [Rifapentine (Priftin)] reads -1.17; that for `COc1cc(/C=C/C(=O)CC(=O)/C=C/c2ccc(O)c(OC)c2)ccc1O` [Curcumin], -2.24; that for `CC1(C)S[C@@H]2[C@H](NC(=O)Cc3ccccc3)C(=O)N2[C@H]1C(=O)O` [Benzylpenicillin sodium], 0.265. In the case of `C=CCNC(N)=S` [Allylthiourea], the log2 surviving fraction was 0.39. For the compound `CCN(CC)CCOC(=O)C1(C2CCCCC2)CCCCC1` [Dicyclomine HCl], the log2 surviving fraction is -0.039.

For the compound `Cn1c([N+](=O)[O-])cnc1COC(N)=O` [Ronidazole], the log2 surviving fraction is -0.137. For `CCCCOc1cc(C(=O)OCCN(CC)CC)ccc1N` [Oxybuprocaine HCl], the log2 surviving fraction is -0.0373.

For the compound `NC(=O)OCC(COC(N)=O)c1ccccc1` [Felbamate], the log2 surviving fraction is 0.68. Turning to `CC[C@H]1CN2CCc3cc(OC)c(OC)cc3[C@@H]2C[C@@H]1C[C@H]1NCCc2cc(OC)c(OC)cc21` [Emetine], the log2 surviving fraction is -7.92. With `Cc1ccccc1N1C(=O)c2cc(S(N)(=O)=O)c(Cl)cc2NC1C` (centres undefined) [Metolazone (Zaroxolyn)], the log2 surviving fraction was 0.124.
